± gives the standard deviation of the averaged measurements. This is one part of the list.

The test system of this assay is PfAP2-I AP2 domain 3 (GST-tagged). The assay is described as follows: gcPBM binding intensity (ln(normalized median fluorescence intensity)); higher = stronger DNA binding. The method in brief: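 GST-tagged P. falciparum DNA-binding domains produced in E. coli were incubated for 1 h on an Agilent 4 × 180k array of primer-extended double-stranded 36-bp intergenic genomic probes with negative controls. Binding intensity is the highest Masliner-normalised natural-log median intensity across replicate spots of either probe orientation, with bound protein detected by Alexa488 anti-GST antibody at 488 nm.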
As for “ATTTTTTCTGTCTTAATTGGACCCACTGCAAATGGG [CACACA_negctrl_site1158]”, the “gcPBM binding intensity (ln)” value was 8.12 ± 0.15.
For “ATAATACAAAAAAAAAAAAAAAATAAAATAATAAAA [GTGCAC_negctrl_site722]” the value was 7.49 ± 0.2; for “TACCTAAATAAATGGACACACACATATATATATATA [CACACA_site8407]”, 9.39 ± 0.43.
For “TTATAGCCTGTGAAGAGTACATTTTTATTTTTTATT [XGTACX_site4105]” the value was 7.71 ± 0.55; for “AAGTAATACAACACGCACATATATATATATATATAT [GTGCAC_negctrl_site89]”, 9.37 ± 0.48; for “TATTTTTAAATATAAAGTACTTATATTAACTACGAA [XGTACX_site1524]”, 7.71 ± 0.3.
For “TCTGTAGTTTTTTACAGTACTTTTAGGTAATACATA [XGTACX_site7417]” the value was 7.59 ± 0.33; for “TTCTTGTATTTTCATAGTACATATAATGTCGTGTTA [XGTACX_site7714]”, 7.84 ± 0.52; for “AAAACACCCAAACACACACACACATATATATATATA [CACACA_site9119]”, 9.43 ± 0.42.
In the case of “ACCTCTTTGAAATATACACACTAAACATATCAACTT [CACACA_site5372]”, the “gcPBM binding intensity (ln)” value turned out to be 8.13 ± 0.82.
To “TACATAGAGTTTGTTTGTACTCATATGCGTAAATTC [XGTACX_site4810]” belongs 7.91 ± 0.33.
For “AGAAAAAAAATATACACACATACGATCATACATATG [CACACA_site2171]” the value was 7.62 ± 0.57; for “CATTATGTCATAAATGCACACATATACATTGTTTTG [CACACA_site8118]”, 9.635 ± 0.007; for “AATAAATTATTTATTGCATGTAATATGAATATTTTT [TGCATGCA_site798]”, 7.66 ± 0.42.
Take “TAATGTATGAAATAAACACACAAGTAAGTACATAAA [CACACA_site2451]”: the “gcPBM binding intensity (ln)” value is 8.15 ± 0.3.
To “ATATATTTTATTCCTATATATATATATATATATATA [GTGCAC_negctrl_site556]” belongs 9.18 ± 1.
As for “TATATTACTTAAAATACACACCATGGAAAAGTTTTA [CACACA_site5443]”, the “gcPBM binding intensity (ln)” value was found to be 7.55 ± 0.59.
For “ATTATTTTTCTATGTGTGCACGTGTGGAATGTGTCT [GTGCAC_site9507]” the value was 10.81 ± 0.064; for “TTCTGAACAAAATTATATATTTATTTTTATTTTCAT [CACACA_negctrl_site422]”, 7.46 ± 0.56.
Regarding “TTTTTATTTTTTTTATGTACACAAATGATATACATA [XGTACX_site5910]”, the “gcPBM binding intensity (ln)” value amounted to 8.13 ± 0.4.
Turning to “AGGATACACGGACACACACACATATAGATTTATATA [CACACA_site6552]”, the “gcPBM binding intensity (ln)” value was 8.14 ± 0.2.
Take “TTTCTTTTTTTTTTTTTTTCTGGCTTTTTCTCTTTT [TGCATGCA_negctrl_site599]”: the “gcPBM binding intensity (ln)” value amounted to 7.61 ± 0.33.
To “TAAAAATGTAGACACACACACATATATATATTTAAT [CACACA_site1528]” belongs 7.75 ± 0.4.
On to ATATATATAATATAGGTGCACTACTTATTTAAAAAA, for which the “gcPBM binding intensity (ln)” value came to 11.6 ± 0.2.
With “AAATAATTAGCTATTTGTACATATATACATATTTAT [XGTACX_site4652]”, the “gcPBM binding intensity (ln)” value was 7.63 ± 0.57.
For the sequence “TTAATAACAAAATAAACACACATATATAAATCCACA [CACACA_site1590]”, the “gcPBM binding intensity (ln)” value was 7.97 ± 0.44.
With “AAAATGAATATAATGACGCACACTTAAAATTGTTAA [CACACA_site2509]”, the “gcPBM binding intensity (ln)” value amounted to 7.84 ± 0.45.
For “TGTGTTAAATGTAATAGTGAATAAATAATTTTAACA [TGCATGCA_negctrl_site161]” the value was 7.67 ± 0.35; for “TTTTTTAGAAAAAGTTGTACTTTTTTTTTTTTTTTT [XGTACX_site535]”, 8.62 ± 0.4.
For “TTTTTACGTAAACAAAATAATTATATAATATTATTT [CACACA_negctrl_site1769]” the value was 7.62 ± 0.35; for “TAAACAAATAAATAAACACACAATATATGTATATAT [CACACA_site3803]”, 7.59 ± 0.54.
As for “CGTAAATTTTTTAAAAGTACAAAAAGATACGAGAAA [XGTACX_site8722]”, the “gcPBM binding intensity (ln)” value was 7.92 ± 0.45.
To “ATATATTAGGGCAAATTTTCTGACATTACATCAGTC [CACACA_negctrl_site1166]” belongs 7.79 ± 0.71.
Regarding “ATATTTATATTTGTATGTACTTAAGTTTGTATGTAT [XGTACX_site3608]”, the “gcPBM binding intensity (ln)” value stood at 7.88 ± 0.42.
To “TTTTTAATTCAAAAAATAATATATTATATTTCAAAT [CACACA_negctrl_site737]” belongs 7.38 ± 0.48; to “TATTTTTCTTTTTTCTGTACTCACACAAATAGAAGG [XGTACX_site7329]”, 8.06 ± 0.21.
Turning to “ATACAACATATATATACACACATATAATAATAATAA [CACACA_site3367]”, the “gcPBM binding intensity (ln)” value came out at 7.97 ± 0.45.
To “GAATAAAAAATATATGTGCACATATAAACTTAAAAT [GTGCAC_site9554]” belongs 9.72 ± 0.23.
To “TAATATAAAGGAAAAGAAAAGAAAAGAATATACAAT [CACACA_negctrl_site1369]” belongs 7.54 ± 0.59.
For “AAACCAATAAAAAACTGTACAAAAATTATATGAGAT [XGTACX_site1269]”, the “gcPBM binding intensity (ln)” value stood at 7.84 ± 0.71.
To “AAAAAACTTATAATCACACATATGATTAAATATTAA [CACACA_site4956]” belongs 7.31 ± 0.44; to “ATAGGACCTATGTGCCCATGGGTACATTAAAAAAAA [CACACA_negctrl_site1465]”, 7.97 ± 0.54.
Regarding “AAAAAAAAAAAAAAAATACACACGTGAATGTATTGT [CACACA_site1320]”, the “gcPBM binding intensity (ln)” value was 8.64 ± 0.51.
